# Laboratory results: the supplement of paper PMC8728848
# Some of the results follow.
# Legend:
# Assay in all cases: glycan array binding signal (z-score within array); higher = stronger binding
# Details in all cases: glycan notation: IUPAC condensed, linker removed
# [1] = target: Gal(b1-4)GlcNAc(b1-2)Man(a1-3)[Gal(b1-4)GlcNAc(b1-2)Man(a1-6)]Man(b1-4)GlcNAc(b1-4)[Fuc(a1-6)]GlcNAc
# Outline: (§1)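 The Consortium for Functional Glycomics database supplied 3228 glycan arrays, of which those lacking an available protein sequence were dropped. The binding signal, a within-array Z-score, was averaged across arrays of the same protein sequence and across linkers. Negative scores can be read as non-binding.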
# [2] = target: Gal(b1-4)GlcNAc(b1-2)Man(a1-3)[Gal(b1-4)GlcNAc(b1-2)Man(a1-6)][Gal(b1-4)GlcNAc(b1-4)]Man(b1-4)GlcNAc(b1-4)[Fuc(a1-6)]GlcNAc
# Outline: as §1
# [3] = target: Gal(b1-4)GlcNAc(b1-2)Man(a1-3)[Gal(b1-4)GlcNAc(b1-2)Man(a1-6)][GlcNAc(b1-4)]Man(b1-4)GlcNAc(b1-4)[Fuc(a1-6)]GlcNAc
# Outline: as §1
# [4] = target: Gal(b1-4)GlcNAc(b1-2)Man(a1-3)[GlcNAc(b1-2)Man(a1-6)]Man(b1-4)GlcNAc(b1-4)GlcNAc
# Outline: as §1
# [5] = target: Gal(b1-4)GlcNAc(b1-2)Man(a1-3)[GlcNAc(b1-4)][Gal(b1-4)GlcNAc(b1-2)Man(a1-6)]Man(b1-4)GlcNAc(b1-4)GlcNAc
# Outline: as §1
# [6] = target: Gal(b1-4)GlcNAc(b1-2)Man(a1-3)[Man(a1-6)]Man(b1-4)GlcNAc(b1-4)GlcNAc
# Outline: as §1
# [7] = target: Gal(b1-4)GlcNAc(b1-2)Man(a1-6)Man(b1-4)GlcNAc(b1-4)GlcNAc
# Outline: as §1
# [8] = target: Gal(b1-4)GlcNAc(b1-2)Man(a1-6)[GlcNAc(b1-2)Man(a1-3)]Man(b1-4)GlcNAc(b1-4)GlcNAc
# Outline: as §1
# [9] = target: Gal(b1-4)GlcNAc(b1-2)Man(a1-6)[Man(a1-3)]Man(b1-4)GlcNAc(b1-4)GlcNAc
# Outline: as §1
# [10] = target: Gal(b1-4)GlcNAc(b1-2)[Gal(b1-4)GlcNAc(b1-4)]Man(a1-3)[Gal(b1-4)GlcNAc(b1-2)Man(a1-6)]Man(b1-4)GlcNAc(b1-4)GlcNAc
# Outline: as §1
# [11] = target: Gal(b1-4)GlcNAc(b1-2)[Gal(b1-4)GlcNAc(b1-4)]Man(a1-3)[Gal(b1-4)GlcNAc(b1-2)[Gal(b1-4)GlcNAc(b1-6)]Man(a1-6)]Man(b1-4)GlcNAc(b1-4)GlcNAc
# Outline: as §1
# [12] = target: Gal(b1-4)GlcNAc(b1-2)[Gal(b1-4)GlcNAc(b1-4)]Man(a1-3)[GlcNAc(b1-4)][Gal(b1-4)GlcNAc(b1-2)Man(a1-6)]Man(b1-4)GlcNAc(b1-4)GlcNAc
# Outline: as §1
# [13] = target: Gal(b1-4)GlcNAc(b1-2)[Gal(b1-4)GlcNAc(b1-4)]Man(a1-3)[GlcNAc(b1-4)][Gal(b1-4)GlcNAc(b1-2)[Gal(b1-4)GlcNAc(b1-6)]Man(a1-6)]Man(b1-4)GlcNAc(b1-4)GlcNAc
# Outline: as §1
# [14] = target: Gal(b1-4)GlcNAc(b1-2)[Gal(b1-4)GlcNAc(b1-6)]Man(a1-6)[Gal(b1-4)GlcNAc(b1-2)Man(a1-3)]Man(b1-4)GlcNAc(b1-4)GlcNAc
# Outline: as §1
# [15] = target: Gal(b1-4)GlcNAc(b1-2)[Gal(b1-4)GlcNAc(b1-6)]Man(a1-6)[Gal(b1-4)GlcNAc(b1-2)Man(a1-3)]Man(b1-4)GlcNAc(b1-4)[Fuc(a1-6)]GlcNAc
# Outline: as §1
# [16] = target: Gal(b1-4)GlcNAc(b1-2)[Gal(b1-4)GlcNAc(b1-6)]Man(a1-6)[GlcNAc(b1-4)][Gal(b1-4)GlcNAc(b1-2)Man(a1-3)]Man(b1-4)GlcNAc(b1-4)GlcNAc
# Outline: as §1
# [17] = target: Gal(b1-4)GlcNAc(b1-2)[Gal(b1-4)GlcNAc(b1-6)]Man(a1-6)[GlcNAc(b1-4)][Gal(b1-4)GlcNAc(b1-2)[Gal(b1-4)GlcNAc(b1-4)]Man(a1-3)]Man(b1-4)GlcNAc(b1-4)[Fuc(a1-6)]GlcNAc
# Outline: as §1
# [18] = target: Gal(b1-4)GlcNAc(b1-3)Gal(b1-3)GalNAc
# Outline: as §1
# [19] = target: Gal(b1-4)GlcNAc(b1-3)Gal(b1-3)GlcNAc
# Outline: as §1
# [20] = target: Gal(b1-4)GlcNAc(b1-3)Gal(b1-4)Glc
# Outline: as §1
# [21] = target: Gal(b1-4)GlcNAc(b1-3)Gal(b1-4)GlcNAc
# Outline: as §1
# [22] = target: Gal(b1-4)GlcNAc(b1-3)Gal(b1-4)GlcNAc(b1-2)Man(a1-3)[Gal(b1-4)GlcNAc(b1-3)Gal(b1-4)GlcNAc(b1-2)Man(a1-6)]Man(b1-4)GlcNAc(b1-4)GlcNAc
# Outline: as §1
# [23] = target: Gal(b1-4)GlcNAc(b1-3)Gal(b1-4)GlcNAc(b1-2)Man(a1-3)[Gal(b1-4)GlcNAc(b1-3)Gal(b1-4)GlcNAc(b1-2)Man(a1-6)]Man(b1-4)GlcNAc(b1-4)[Fuc(a1-6)]GlcNAc
# Outline: as §1
binder,measurement,setting,value
rCnSL-proB (Clitocybe nebularis) (protein) PTFSPIFALLAFLPFGTLASLLPQTQLVFRINPNLPGPNDVFVGYRGTNNVVGAIYERDGIKDTPMNNGADAELGPGSYITDDLFTAQIFASGSAGNNPGTTATVCKIYADGVQWRGAPKGYLPVLYFGNGQAAEQTRQTYLQGLDIPGTAIRFANLAKTPNQGPTAPRQMVVPSGGLQTLLKASCFPANHAALPQVLSYFNVRAALPPGWNIRTGPEFPNWTN,glycan array binding signal (z-score),[1],1.3
same,glycan array binding signal (z-score),[2],-0.007
same,glycan array binding signal (z-score),[3],0.414
same,glycan array binding signal (z-score),[4],-0.788
same,glycan array binding signal (z-score),[5],0.593
same,glycan array binding signal (z-score),[6],-0.452
same,glycan array binding signal (z-score),[7],-0.138
same,glycan array binding signal (z-score),[8],-0.377
same,glycan array binding signal (z-score),[9],-0.177
same,glycan array binding signal (z-score),[10],0.152
same,glycan array binding signal (z-score),[11],3.51
same,glycan array binding signal (z-score),[12],-0.267
same,glycan array binding signal (z-score),[13],-0.082
same,glycan array binding signal (z-score),[14],0.884
same,glycan array binding signal (z-score),[15],4.49
same,glycan array binding signal (z-score),[16],0.488
same,glycan array binding signal (z-score),[17],1.09
same,glycan array binding signal (z-score),[18],-1.04
same,glycan array binding signal (z-score),[19],0.248
same,glycan array binding signal (z-score),[20],-0.311
same,glycan array binding signal (z-score),[21],-0.151
same,glycan array binding signal (z-score),[22],6.35
same,glycan array binding signal (z-score),[23],2.27
